Four molecules from patent US20240417463A1 (ADAGENE PTE, published 2024) can be followed below.

Assay [1] deals with T1, human CD47 on the cell surface (CEM, Raji and other human tumor cells, human RBCs) (human, UniProt Q08722).
T1 construct: whole, on cells; also called CD47 on tumor cell surface; CD47 on RBCs
Description: flow cytometry, CEM cells, batch 1. In general terms: A flow cytometer gives signals particle by particle.

Assay [2] has as its target T1, human CD47 on the cell surface (CEM, …). Description: flow cytometry, CEM cells, batch 2.
The target is the same in assay [3]. Description: flow cytometry, Raji cells, batch 3.
In assay [4] the target is T2, hCD47-ECD/Fc protein (Sinobiological) (human, UniProt Q08722 in part, biotinylated in the Octet assay, sites not stated).
T2 construct: extracellular domain; Bought protein; also called human CD47-Fc antigen; recombinant hCD47-ECD/Fc; not shown: Fc part of the bought fusion protein
As to the kind of experiment: ELISA, coated hCD47-ECD/Fc, batch 2. Background: An ELISA detects its analyte on a solid surface through an enzyme-linked reagent.

In assay [5] the target is T3, mCD47-ECD/His protein (Sinobiological) (mouse, UniProt Q61735 19-140, limits assumed).
T3 construct: extracellular domain; Bought protein; also called mouse CD47; not shown: His tag
T3 sequence (looked up): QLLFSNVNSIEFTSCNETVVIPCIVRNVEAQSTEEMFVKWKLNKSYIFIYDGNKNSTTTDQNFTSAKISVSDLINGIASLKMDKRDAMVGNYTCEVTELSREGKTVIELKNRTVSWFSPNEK
Description: ELISA, coated mCD47-ECD/His.

For assay [6], the target named is T1, human CD47 on the cell surface (CEM, …). Description: flow cytometry, Raji cells, batch 2.
The target in assay [7] is T4, cynoCD47-ECD/His protein (Sinobiological) (cynomolgus monkey, UniProt A0A2K5X4H8 19-141).
T4 construct: Bought protein; also called cynomolgus monkey CD47; Monkey CD47
T4 sequence (A0A2K5X4H8 entry or part of it limits assumed): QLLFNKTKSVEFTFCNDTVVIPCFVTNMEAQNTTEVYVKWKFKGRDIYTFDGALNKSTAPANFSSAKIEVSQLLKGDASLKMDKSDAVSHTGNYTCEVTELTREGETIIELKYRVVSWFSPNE
As to the kind of experiment: ELISA, coated cynoCD47-ECD/His.

Assay [8] addresses T1, human CD47 on the cell surface (CEM, …). As to the kind of experiment: flow cytometry, human RBCs, batch 2.
The target is the same in assay [9]. As to the kind of experiment: flow cytometry, human RBCs, batch 1.
Assay [10] shares this target. Description: flow cytometry, Raji cells, batch 1.
The target in assay [11] is T2, hCD47-ECD/Fc protein (Sinobiological). Description: ELISA, coated hCD47-ECD/Fc, batch 1.
Assay [12] has the same target. As to the kind of experiment: ELISA, coated hCD47-ECD/Fc, batch 3.
Assay [13] concerns the target T1, human CD47 on the cell surface (CEM, …). Description: cell-based or functional assay.
Assay [14] shares this target. Description: flow cytometry on CEM cells, EC50 ratio against TY26898 after cleavage; member found by dividing the values of the 21st table, batch 2.
For assay [15] the target is unchanged. As to the kind of experiment: flow cytometry on CEM cells, EC50 ratio against parental TY26896; member found by dividing the values of the 21st table, batch 1.
The target is the same in assay [16]. As to the kind of experiment: flow cytometry on Raji cells, EC50 ratio against parental TY26896; member found by dividing the values of the 22nd table, batch 2.
The target is the same in assay [17]. As to the kind of experiment: flow cytometry on Raji cells, EC50 ratio against TY26898 after cleavage; member found by dividing the values of the 22nd table, batch 2.
The target is the same in assay [18]. As to the kind of experiment: flow cytometry on human RBCs, EC50 ratio against parental TY26897; member found by dividing the values of the 23rd table, batch 1.
Assay [19] has the same target. As to the kind of experiment: flow cytometry on Raji cells, EC50 ratio against TY26899 after cleavage; member found by dividing the values of the 22nd table, batch 3.
The target is the same in assay [20]. Description: flow cytometry on Raji cells, EC50 ratio against parental TY26897; member found by dividing the values of the 22nd table, batch 3.

B1: TY26896 (antibody, human IgG1, kappa)
heavy: EVQLVESGGGLVQPGGSLRLSCAASGFTFTNYAIHWVRQAPGKGLEWVSAISGSGSSTYYADSVKGRFTISRDNSKNTLYLQLNSLRAEDTAVYYCARRGSYGFGAFDYWGQGTLVTVSS[skipping human IgG1 constant region]
light: DIQLTQSPSSLSASVGDRVTITCRASQTIGRYLNWYQQKPGKAPKLLIYDASNRATGIPSRFSGSGSGTDFTLTISSLQPEDFATYYCQQRYPWPYTFGQGTKVEIKRTVAAPSVFIFPPSDEQLKSGTASVVCLLNNFYPREAKVQWKVDNALQSGNSQESVTEQDSKDSTYSLSSTLTLSKADYEKHKVYACEVTHQGLSSPVTKSFNRGEC
On to B1, for which the EC50 in assay [1] came out at 0.27 nM; in [2], 0.52 nM; in assay [3], 0.26 nM; in assay [4], 0.33 nM; in assay [6], 0.46 nM; in assay [7], 0.43 nM. The EC50 in assay [8] was determined as 0.44 nM; in assay [9] it was 0.2 nM; in assay [10], 0.49 nM; in assay [11], 0.19 nM; in assay [12] it was 0.531 nM. Besides, the “max MFI” value in assay [2] amounted to 334000 MFI; in [3] it was 174000 MFI; in [8] it was 14000 MFI. Further, the binding result in [5] was “no binding (tested: 8 µM)”. The “EC50 of macrophage phagocytosis of CEM cells, donor A” value in assay [13] amounted to 0.22 nM. Further, in assay [13], the “EC50 of macrophage phagocytosis of CEM cells, donor B” value turned out to be 0.16 nM. The “Max. Phagocytosis (%), donor A” value in assay [13] came to 78.8%. Moreover, the “Max. Phagocytosis (%), donor B” value in assay [13] was 92.2%.

B2: TY26898 (antibody, human IgG1, kappa)
heavy: EVQLVESGGGLVQPGGSLRLSCAASGFTFTNYAIHWVRQAPGKGLEWVSAISGSGSSTYYADSVKGRFTISRDNSKNTLYLQLNSLRAEDTAVYYCARRGSYGFGAFDYWGQGTLVTVSS[skipping human IgG1 constant region]
light: EVGSYLTVDYFCDIDPLYCNAGGGPLGLAGSGGSDIQLTQSPSSLSASVGDRVTITCRASQTIGRYLNWYQQKPGKAPKLLIYDASNRATGIPSRFSGSGSGTDFTLTISSLQPEDFATYYCQQRYPWPYTFGQGTKVEIKRTVAAPSVFIFPPSDEQLKSGTASVVCLLNNFYPREAKVQWKVDNALQSGNSQESVTEQDSKDSTYSLSSTLTLSKADYEKHKVYACEVTHQGLSSPVTKSFNRGEC
notes: also called masked antibody TY26898
Turning to B2, the “masking efficiency (EC50 uncleaved / EC50 cleaved)” value in [14] turned out to be 341 fold; in assay [17] it was 891 fold. The EC50 is 407 nM in assay [1]; 154 nM in assay [2]; 31.1 nM in assay [3]; 158 nM in assay [4]; 356 nM in [6]; 653 nM in assay [8]. Further, the EC50 worked out at 185 nM in assay [9], 274 nM in assay [10], 42.8 nM in assay [11] and 202 nM in [12]. Besides, the entries for the “max MFI” value in assay [2], in [3] and in assay [8] were 324000 MFI, 118000 MFI and 2800 MFI, respectively. Moreover, the “masking efficiency (EC50 masked / EC50 parental)” value in assay [15] worked out at 1510 fold; in assay [16], 774 fold. In assay [5], the binding result was “no binding”. Moreover, the “Max. Phagocytosis (%), donor A” value in assay [13] came out at 21.2%. For the same molecule, the “Max. Phagocytosis (%), donor B” value in assay [13] turned out to be 17.8%.

B3: TY26899 (antibody, human IgG1, kappa)
heavy: EVQLVESGGGLVQPGGSLRLSCAASGFTFTNYAIHWVRQAPGKGLEWVSAISGSGSSTYYADSVKGRFTISRDNSKNTLYLQLNSLRAEDTAVYYCARRGSYGFGAFDYWGQGTLVTVSS[skipping human IgG1 constant region with changes]
light: EVGSYLTVDYFCDIDPLYCNAGGGPLGLAGSGGSDIQLTQSPSSLSASVGDRVTITCRASQTIGRYLNWYQQKPGKAPKLLIYDASNRATGIPSRFSGSGSGTDFTLTISSLQPEDFATYYCQQRYPWPYTFGQGTKVEIKRTVAAPSVFIFPPSDEQLKSGTASVVCLLNNFYPREAKVQWKVDNALQSGNSQESVTEQDSKDSTYSLSSTLTLSKADYEKHKVYACEVTHQGLSSPVTKSFNRGEC
As to B3, the EC50 in assay [1] turned out to be 446 nM; in assay [2], 106 nM; in assay [3], 14.8 nM; in assay [4], 160 nM; in [6], 166 nM; in assay [8] it was 329 nM. Further, the EC50 was determined as 124 nM in assay [9], 156 nM in [10] and 64.6 nM in [11]. Also, the “max MFI” value in assay [2] was found to be 387000 MFI; in assay [3], 118000 MFI; in [8], 4860 MFI. Besides, the binding result in assay [5] is listed as “no binding”. In addition, the “masking efficiency (EC50 masked / EC50 parental)” value in assay [18] amounted to 344 fold; in [20] it was 35 fold. In addition, in [19], the “masking efficiency (EC50 uncleaved / EC50 cleaved)” value is 64 fold. Also, the “Max. Phagocytosis (%), donor A” value in assay [13] was 18.6%. In addition, the “Max. Phagocytosis (%), donor B” value in assay [13] is 14.4%.

B4: TY26897 (antibody, human IgG1, kappa)
heavy: EVQLVESGGGLVQPGGSLRLSCAASGFTFTNYAIHWVRQAPGKGLEWVSAISGSGSSTYYADSVKGRFTISRDNSKNTLYLQLNSLRAEDTAVYYCARRGSYGFGAFDYWGQGTLVTVSS[skipping human IgG1 constant region with changes]
light: DIQLTQSPSSLSASVGDRVTITCRASQTIGRYLNWYQQKPGKAPKLLIYDASNRATGIPSRFSGSGSGTDFTLTISSLQPEDFATYYCQQRYPWPYTFGQGTKVEIKRTVAAPSVFIFPPSDEQLKSGTASVVCLLNNFYPREAKVQWKVDNALQSGNSQESVTEQDSKDSTYSLSSTLTLSKADYEKHKVYACEVTHQGLSSPVTKSFNRGEC
With B4, the EC50 was found to be 0.64 nM in [1]; 0.44 nM in assay [2]; 0.42 nM in assay [3]; 0.34 nM in [4]; 0.33 nM in assay [6]; 0.58 nM in [7]. Besides, the EC50 in assay [8] worked out at 0.43 nM; in [9], 0.36 nM; in assay [10], 0.39 nM; in assay [11] it was 0.34 nM. Besides, the “max MFI” value in [2] was found to be 325000 MFI; in assay [3], 213000 MFI; in [8], 13100 MFI. Moreover, the binding result in assay [5] is recorded as “no binding (tested: 8 µM)”. The “EC50 of macrophage phagocytosis of CEM cells, donor A” value in [13] was found to be 0.2 nM. Further, the “EC50 of macrophage phagocytosis of CEM cells, donor B” value in assay [13] turned out to be 0.13 nM. Also, the “Max. Phagocytosis (%), donor A” value in [13] was determined as 75.9%. The “Max. Phagocytosis (%), donor B” value in assay [13] was determined as 85.9%.

As a reminder, the EC50 is the midpoint of the concentration-response curve.
